Source: PubChem BioAssay AID540267 (National Center for Advancing Translational Sciences (NCATS), 2011)
The campaign covered roughly 340,000 compounds. About 530 (0.16%) were called active. Inconclusive means that the source gave no clear call. Such entries were picked first, then a sample of the others. Rule as the data show it: active = activity change below about -80%; inconclusive = between about -30% and that limit; inactive = weaker than that.

Assay: Small Molecules that selectively kill Giardia lamblia: qHTS;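 also: parasites exposed to compound for two days anaerobically before the ATP read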
Conditions: Giardia lamblia trophozoite viability; at 7.66 µM; hits give low values
How it was run: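 Luminescence from cellular ATP indicates surviving trophozoites (100 cells/well) following 48 hrs anaerobic compound treatment at 37 deg C; signal develops 15-30 min at room temperature.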
% is scaled to controls: 0 for no effect and ±100 for the full control effect.

Compound | activity change
CN(C)S(=O)(=O)c1ccc(C(=O)OCC(=O)N2CC3(C)CC2CC(C)(C)C3)cc1 (stereo not given) | inconclusive: -31% [inhibitor]
COc1ccc(C(=O)c2c(C)oc3cc([N+](=O)[O-])c(O)c([N+](=O)[O-])c23)cc1 | inconclusive: -60.3% [inhibitor]
O=C(Nc1ccc([N+](=O)[O-])cc1)C1CC1(c1ccccc1)c1ccccc1 (stereo not given) | inactive: 56.7%
COc1ccc2c(c1)sc1nc(-c3ccccc3)cn12 | active: -90.7%
O=C(CSc1nc2ccccc2c2c1CCCC2)N1CCOCC1 | inconclusive: -42.4% [inhibitor]
CN(C)c1ccc(/C=N/N=C2/NC(=O)/C(=C/c3ccc([N+](=O)[O-])cc3)S2)cc1 | active: -92.6%
Cc1ccc(NC(=O)c2ccc(Nc3c([N+](=O)[O-])cc([N+](=O)[O-])cc3[N+](=O)[O-])cc2)cc1 | inconclusive: -57.7% [inhibitor]
CC(=O)Nc1ccc(-n2c(C)nc(=O)c(-c3ccccc3)c2C)cc1 | inconclusive: -36.7% [inhibitor]
COc1cccc(CN2c3ccc(Br)cc3C(=O)CS2(=O)=O)c1 | inactive: 23%
C=CCNC(=S)Nc1ccc(C(N)=O)cc1 | inactive: -1.45%
COc1ccc(OC)c(NC(=O)CCNC(=O)Cn2cnc3ccccc3c2=O)c1 | inconclusive: -31.1% [inhibitor]
Cc1nc(SCC(=O)Nc2nc3ccccc3s2)c(C#N)c(C)c1C | inconclusive: -42.1% [inhibitor]
COC1=C(N)C(=O)c2nc(-c3nc(C(=O)O)c(C)c(-c4ccc(OC)c(OC)c4O)c3N)ccc2C1=O | inconclusive: -76.9% [inhibitor]
COc1ccc(NC2CCCN(C(=O)CN3CCOC3=O)C2)cc1 (stereo not given) | inconclusive: -34.4% [inhibitor]
O=C(Nc1ccc2nc(-c3ccco3)[nH]c2c1)c1cccs1 | inconclusive: -46.5% [inhibitor]
COc1ccc(-c2nc(NCCCN(C)C)c3ccccc3n2)cc1 | active: -99%
CC(=O)Nc1ccc(Sc2ncccc2C(=O)Nc2ccc(F)cc2)cn1 | inactive: -3.33%
Cc1ccc(C(=O)CSc2nnc(-c3ccco3)n2Cc2ccccc2)cc1 | inactive: -2.44%
O=C(CNC(=O)Cc1ccccc1)N=Nc1c(O)[nH]c2ccc(Br)cc12 | inconclusive: -47.8% [inhibitor]
NC(=O)CCn1c(C(=O)c2cccc([N+](=O)[O-])c2)c2ccccc2[n+]1[O-] | inconclusive: -65.6% [inhibitor]
OCCc1c[nH]c2ccc(OCc3ccccc3)cc12 | inconclusive: -35.6% [inhibitor]
Nc1nc(Sc2ccc([N+](=O)[O-])c3nonc23)c2[nH]cnc2n1 | inactive: -2.35%
FC(F)(F)c1cccc(N2CCN(C(=S)NC3CCCCC3)CC2)c1 | inactive: -2.27%
COc1ccc(NC(=O)COCC(=O)Nc2ccc(C)cc2)cc1 | inconclusive: -38.9% [inhibitor]
CN1C(=O)Nc2cccc3cccc1c23 | inconclusive: -31% [inhibitor]

Compound | activity change
CC(C)Sc1nnc(NC(=O)c2ccco2)s1 | inconclusive: -30.5% [inhibitor]
Cc1cc(-c2ccc(/C=N/n3cnnc3)o2)ccc1Cl | inconclusive: -33.5% [inhibitor]
COc1ccc(Cc2nnc(NC(=O)c3ccccc3)s2)cc1OC | inactive: 13.1%
O=C1/C(=C/c2ccccc2)SC(=S)N1CCCC(=O)N1CCCCC1CCO (stereo not given) | inactive: -3.83%
CCCCN1C(Nc2ccccc2)=NC[C@@H]1C | inconclusive: -32.2% [inhibitor]
Cc1ccccc1NC(=O)c1ccccc1NC(=O)c1cccs1 | inconclusive: -30.4% [inhibitor]
O=[N+]([O-])c1ccc(C2=NN(c3ccccc3)C(c3ccco3)C2)cc1 (stereo not given) | inconclusive: -35.9% [inhibitor]
O=C(CCCN1C(=O)S/C(=C\C=C\c2ccccc2)C1=O)Nc1ccc(C(=O)O)cc1 | inactive: -1.17%
Cc1ccc(OCC(=O)NC2CCCC(C)C2C)c([N+](=O)[O-])n1 (stereo not given) | inconclusive: -39.9% [inhibitor]
Cc1ccc(CNc2nc3ccccc3s2)s1 | inconclusive: -47% [inhibitor]
O=C(Nc1nc2cc3c(cc2s1)OCCO3)c1ccc([N+](=O)[O-])o1 | active: -88.6%
Cc1cc(NC(=O)CSc2nc3c(sc4ccccc43)c(=O)n2CCc2ccccc2)n[nH]1 | inactive: 19.2%
COc1ccccc1[C@H]1C(c2cccc(Cl)c2)=NN(c2ccccc2)[C@@H]1CO | inactive: -8.63%
CC1CN(CCOCCSc2ccc(Cl)cc2)CC(C)O1 (stereo not given) | inconclusive: -31.9% [inhibitor]
O=C(Nc1ccc([N+](=O)[O-])cc1)C(=O)Nc1cccc(C(=O)O)c1 | inconclusive: -70.9% [inhibitor]
COc1ccc(NC(=O)Nc2cccc3c2O[C@H](CN(C)C(=O)NC(C)C)[C@@H](C)CN([C@H](C)CO)C3=O)cc1 | inconclusive: -33.2% [inhibitor]
COc1ccccc1C(O)P(=O)(OCC(C)C)c1ccc(N(C)C)cc1 (stereo not given) | inactive: -10.4%
O=C(Nc1cccnc1)c1ccc([N+](=O)[O-])s1 | active: -87%
COCC(C)n1c(C)cc(C(=O)COC(=O)c2n[nH]c3ccccc23)c1C (stereo not given) | inconclusive: -31.9% [inhibitor]
N#Cc1ccc(C(=O)NCC(c2ccco2)N2CCCCC2)cc1 (stereo not given) | inconclusive: -36.1% [inhibitor]
O=C(Nc1ccccc1N1CCOCC1)c1ccc([N+](=O)[O-])o1 | active: -91.8%
Cc1cccc(C)c1NC(=O)CSc1ccc([N+](=O)[O-])cn1 | inconclusive: -31.3% [inhibitor]
CSCCC(=O)N1CC[C@@H](N2CCN(c3ccccc3F)CC2)[C@H](O)C1 | inconclusive: -30% [inhibitor]
CCOc1ccc(N(Cc2ccc(OC)c(OC)c2)C(=O)c2ccco2)cc1 | inconclusive: -39.4% [inhibitor]
Cc1ccc(C2=NCCn3c2c2ccc([N+](=O)[O-])cc2[n+]3[O-])cc1 | inconclusive: -77.7% [inhibitor]
